Measured values taken from the supplement of paper PMC3334620.
In all, about 33,000 sequences were measured (“E-score (-0.5 to 0.5)”: median about -0.032, highest 2% from about 0.36 on). This is one part of the list.

target: T1, Sko1 (UniProt Q02100); experiment: PBM E-score (8-mer binding enrichment) (E-score (-0.5 to 0.5)); higher = stronger / more preferred TF binding; most listed sequences are background and not binding sites; conditions: protein concentration: 200 nM; construct: GST-full length
T1 sequence: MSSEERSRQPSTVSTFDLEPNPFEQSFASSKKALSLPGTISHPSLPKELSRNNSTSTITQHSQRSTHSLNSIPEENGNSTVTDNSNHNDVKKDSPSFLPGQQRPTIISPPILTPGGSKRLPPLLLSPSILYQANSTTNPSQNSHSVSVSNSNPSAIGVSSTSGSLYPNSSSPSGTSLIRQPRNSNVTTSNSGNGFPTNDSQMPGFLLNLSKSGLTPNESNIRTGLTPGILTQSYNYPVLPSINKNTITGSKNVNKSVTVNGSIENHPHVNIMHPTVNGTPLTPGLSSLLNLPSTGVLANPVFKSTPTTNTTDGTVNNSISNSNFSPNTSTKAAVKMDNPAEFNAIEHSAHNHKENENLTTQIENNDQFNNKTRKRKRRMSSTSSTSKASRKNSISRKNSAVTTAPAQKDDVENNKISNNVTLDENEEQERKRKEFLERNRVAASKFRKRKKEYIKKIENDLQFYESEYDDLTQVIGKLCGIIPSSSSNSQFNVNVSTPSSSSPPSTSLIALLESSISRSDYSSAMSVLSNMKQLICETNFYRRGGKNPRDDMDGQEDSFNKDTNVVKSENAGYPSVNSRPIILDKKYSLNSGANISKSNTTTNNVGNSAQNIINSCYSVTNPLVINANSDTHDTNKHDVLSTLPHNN
Summary of the method: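 Yeast transcription factors, full-length or as DNA-binding domains, were expressed with a GST tag using PURExpress in vitro transcription/translation. At about 100-200 nM they were applied to universal all-10-mer Agilent arrays, double-stranded by primer extension on fresh or once-stripped slides. Fluorescent anti-GST detected bound protein, and masliner normalised the scans. E-scores for ungapped eight-base words, pooled with reverse complements, came from the Universal PBM Analysis Suite.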

Sequence	PBM E-score
GCCGGCAA	-0.298
CTATTGTA	0.169
AAAGGGAG	-0.215
CGCTTGTA	0.0469
GAGTCACC	-0.279
AATATCGA	0.11
GTTAAGTA	0.228
CTCATATA	0.0195
CGCATCCC	-0.244
GATCCGGC	-0.261
AAACTATT	0.1
CACGGGAG	-0.188
CAGCCGAA	-0.0357
ACGGGCCT	-0.258
CGCCGGTA	-0.0438
CGCGAAAC	-0.0152
AGCGCAGA	-0.293
CGTACGTA	0.474
GCATTCCA	-0.00917
AAAACTAA	0.272
ATGGTGAA	0.0155
CTGATGCA	0.0938
ATGAATCC	-0.0396
ATCTTTAG	0.016
CGTCCTGC	-0.136

Sequence	PBM E-score
CGATGACC	0.0462
ACAGCGAT	-0.248
TATACGCA	0.411
CCACTCGG	-0.298
AGTCGCGC	-0.129
CCGATGAC	0.312
ATTCCGCC	-0.176
CAAACAGA	-0.157
ACCAATTC	0.00776
CGGCTCCA	-0.318
CATGTTGC	0.00941
CCAGTGCG	-0.259
ATCTAGGA	0.0999
ATGATAAG	0.141
AATAAGGT	-0.046
ACAAGCGT	0.054
ACCACTTA	0.149
GCAGGAGA	-0.286
CAGGTCGG	-0.247
GACCCAGC	-0.227
CTTATTGA	0.0844
CTATCCGC	0.0796
ATACTACG	0.288
AGCGGGCG	-0.15
CAGCCATC	0.0411

Sequence	PBM E-score
GCGTCTAC	0.119
ACCCGTAT	-0.0929
AGATTCTA	0.103
AATTAAAC	0.199
CAAAGTAC	0.174
CACGAATA	0.265
GCAAGGAA	-0.176
AGGCTTAG	-0.178
ACTACCAT	0.0147
ACTAGGGA	-0.155
TAGTAATA	0.264
AGATGGGC	-0.273
AAGCTTAT	0.073
AAGAGACT	-0.13
CCATTCGG	-0.0613
AACAACAC	0.101
CTCGGTAA	-0.0649
AGATATCT	-0.164
ACCGATAT	-0.0781
CGAAACCA	0.225
CATCAATA	0.271
AACATTAC	0.299
ACAAACGC	0.0797
CGAACCCG	-0.266
CAATAGGA	0.00627

Sequence	PBM E-score
ACGCCGAA	-0.0716
ACACCAAT	0.095
CCTCCGGC	-0.312
ACCAGGAT	-0.00173
TCCTGACA	0.0551
CTATATGA	0.159
CCTCTACG	0.109
GCAGATCA	-0.182
CAAGTGCA	-0.0677
ATCGTATA	0.197
AATTACAC	0.0946
ATTATAGG	-0.0444
AAACCAAC	-0.0775
ACTGACCA	-0.216
ATGGCGGC	-0.261
TAATCAAA	0.147
GCAATTAC	0.258
AAACCTAT	0.138
CAATAAGG	-0.0753
AGGCAACA	-0.173
GGGCGGTA	-0.282
AGGCGGAA	-0.0647
TCGCACAA	0.0887
ATACATTG	0.139
ATGTAGGC	-0.0584

Sequence	PBM E-score
CGAATTAG	0.0848
GCGGACTA	-0.0398
GGGTATAC	-0.026
CACCTTCG	-0.136
TCGCTGAA	0.034
CTACTTCA	-0.0541
CGCACCAC	-0.0199
ATAAGTGG	0.0758
AACGTGCG	0.211
ATTCAGGC	-0.127
CCAACCCA	-0.283
ACGACCAT	-0.105
CCACGGTC	-0.372
GGCGCTAC	-0.0282
AAAGGCGA	0.0163
CGGATCGA	-0.183
ACACGGTG	-0.16
GTGCATCA	0.239
AGAGCGTC	0.122
GGCAGCTA	0.105
AGGTCAAT	0.0656
CTATATAA	0.123
CAGCCAAC	0.0493
CGGACCCA	-0.229
CAGAACTG	0.0639

Sequence	PBM E-score
AATATTCT	-0.0383
AGCGGTAT	0.0486
AAGGCAGG	-0.239
AACGTGAG	0.135
GGTTGAGA	-0.129
ACTGTACA	0.103
TAAAAAAA	0.179
CGCCGACA	-0.00963
CACGCCGC	-0.202
AGCGTGTC	-0.0386
TATCTGGA	-0.215
ACTTCTAC	0.109
ACGGCTTG	-0.115
CGGTGTGC	-0.164
ATTCCTAG	-0.0629
AACCTGAT	0.0435
AATACTGT	0.07
CACCGGCG	-0.183
GGCAGAGA	-0.0283
CCAGCTTA	-0.0305
AATATAAG	0.241
TGACGCAA	0.483
AACTGCAT	0.134
CAATCCTC	-0.125
CGGCCATC	-0.325

Sequence	PBM E-score
ACGAATCA	0.212
AATATGCT	0.185
AGTGGGGG	-0.374
AGAAGTTG	-0.182
TAATGTGA	0.282
ATGGAGCC	-0.24
GTAGTTCA	0.112
CAAGGCAC	-0.148
CTGTGGAC	-0.155
CCCCGGGC	-0.344
GTACCTGA	0.16
TATAAGCA	0.0189
AAGCACTG	-0.0664
AACTCCTA	-0.1
AGATATTG	0.0206
GAGGACTC	-0.241
CCGTTTGC	-0.226
CTTACCGC	-0.204
AGACGCAG	0.00981
GGACCGCA	-0.275
ACTCAACA	0.186
CGTGAGGA	-0.0286
